Measured values taken from a melting point compilation (Tetko et al.; mined from patent text by program, amines drawn as free bases though some values may be those of a salt).

SMILES | melting point
O=c1c(-c2cc(O)cc(Br)c2O)coc2cc(O)ccc12 | 253 to 255 °C
O=C(/C=C/c1ccc(C(F)(F)F)cc1Cc1cccnc1)Nc1ccc2[nH]ccc2c1 | 202 to 203 °C
